# Assay results from the supplement of paper PMC4604168 (melanoma cell lines).
# The list shows a part of the results. Many values rest on one well or one pass, so single values are uncertain.
# Tested on: G361
# Assay: cell count relative to DMSO control; melanoma cells; higher = more viable cells
# Details: library dose: low library concentration; 72 h
# 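Note: cell number obtained by counting DAPI-stained nuclei in high-throughput microscope images with image analysis software, screen run in 1,536-well plates.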
row,SMILES,cell count [%]
1,"N#CC[C@H](C1CCCC1)n1cc(-c2ncnc3[nH]ccc23)cn1 [ruxolitinib] + CO[C@H]1C[C@@H]2CC[C@@H](C)[C@@](O)(O2)C(=O)C(=O)N2CCCC[C@H]2C(=O)O[C@H]([C@H](C)C[C@@H]2CC[C@@H](OCCO)[C@H](OC)C2)CC(=O)[C@H](C)/C=C(\C)[C@@H](O)[C@@H](OC)C(=O)[C@H](C)C[C@H](C)/C=C/C=C/C=C/1C [everolimus] (first compound 1 µM, partner dose 0.02 µM)",60.2
2,"Cc1cc(Nc2cc(N3CCN(C)CC3)nc(Sc3ccc(NC(=O)C4CC4)cc3)n2)n[nH]1 [Tozasertib] + Cc1cc(Nc2cc(N3CCN(C)CC3)nc(/C=C/c3ccccc3)n2)n[nH]1 [ENMD2076] (first compound 0.006 µM, partner dose 0.04 µM)",102
3,"Cc1cc(Nc2cc(N3CCN(C)CC3)nc(Sc3ccc(NC(=O)C4CC4)cc3)n2)n[nH]1 [Tozasertib] + CC1(C)NC(=O)N(c2ccc([N+](=O)[O-])c(C(F)(F)F)c2)C1=O [nilutamide] (first compound 0.006 µM, partner dose 1 µM)",112
4,"CC[C@]1(O)C[C@H]2CN(CCc3c([nH]c4ccccc34)[C@@](C(=O)OC)(c3cc4c(cc3OC)N(C=O)[C@H]3[C@@](O)(C(=O)OC)[C@H](OC(C)=O)[C@]5(CC)C=CCN6CC[C@]43[C@@H]65)C2)C1 [vincristine] + COc1ccc(Cl)c(Nc2nc3ccccc3nc2NS(=O)(=O)c2cccc(NC(=O)C(C)(C)N)c2)c1 [XL147] (first compound 0.0001 µM, partner dose 0.8 µM)",84.9
5,"N#CC[C@H](C1CCCC1)n1cc(-c2ncnc3[nH]ccc23)cn1 [ruxolitinib] + CCN(CC)CCNC(=O)c1c(C)[nH]c(/C=C2\C(=O)Nc3ccc(F)cc32)c1C [sunitinib] (first compound 1 µM, partner dose 0.4 µM)",115
6,"Cc1cc(Nc2cc(N3CCN(C)CC3)nc(Sc3ccc(NC(=O)C4CC4)cc3)n2)n[nH]1 [Tozasertib] + COc1cc([C@@H]2c3cc4c(cc3[C@@H](O[C@@H]3O[C@@H]5CO[C@@H](C)O[C@H]5[C@H](O)[C@H]3O)[C@H]3COC(=O)[C@H]23)OCO4)cc(OC)c1O [etoposide] (first compound 0.006 µM, partner dose 0.02 µM)",82.1
7,"CC[C@]1(O)C[C@H]2CN(CCc3c([nH]c4ccccc34)[C@@](C(=O)OC)(c3cc4c(cc3OC)N(C=O)[C@H]3[C@@](O)(C(=O)OC)[C@H](OC(C)=O)[C@]5(CC)C=CCN6CC[C@]43[C@@H]65)C2)C1 [vincristine] + Oc1nc(-c2ccc(C(F)(F)F)cc2)nc2c1CSCC2 [XAV939] (first compound 0.0001 µM, partner dose 2 µM)",82.1
8,"CC[C@]1(O)C[C@H]2CN(CCc3c([nH]c4ccccc34)[C@@](C(=O)OC)(c3cc4c(cc3OC)N(C=O)[C@H]3[C@@](O)(C(=O)OC)[C@H](OC(C)=O)[C@]5(CC)C=CCN6CC[C@]43[C@@H]65)C2)C1 [vincristine] + CC(=O)O[C@@]12CO[C@@H]1C[C@H](O)[C@@]1(C)C(=O)[C@H](O)C3=C(C)[C@@H](OC(=O)[C@H](O)[C@@H](NC(=O)OC(C)(C)C)c4ccccc4)C[C@@](O)([C@@H](OC(=O)c4ccccc4)[C@H]21)C3(C)C [Docetaxel] (first compound 0.0001 µM, partner dose 0.0001 µM)",25
9,"N#CC[C@H](C1CCCC1)n1cc(-c2ncnc3[nH]ccc23)cn1 [ruxolitinib] + Cn1nnc2c(C(N)=O)ncn2c1=O [temozolomide] (first compound 1 µM, partner dose 2 µM)",98.5
10,"Cc1cc(Nc2cc(N3CCN(C)CC3)nc(Sc3ccc(NC(=O)C4CC4)cc3)n2)n[nH]1 [Tozasertib] + Nc1nc(F)nc2c1ncn2[C@@H]1O[C@H](CO)[C@@H](O)[C@@H]1O [fludarabine] (first compound 0.006 µM, partner dose 0.2 µM)",99.5
11,"N#CC[C@H](C1CCCC1)n1cc(-c2ncnc3[nH]ccc23)cn1 [ruxolitinib] + NC(=O)c1ccc(N(C(N)=O)c2c(F)cccc2F)nc1-c1ccc(F)cc1F [VX702] (first compound 1 µM, partner dose 0.4 µM)",106
